# Numbering of substitutions follows the chain as printed.
# T1: mouse ANGPTL7 protein (muANGPTL7-his, R&D Systems) (Mus musculus, UniProt Q8R1Q3)
# T1 construct: His; purchased R&D Systems
# T1 sequence (Q8R1Q3 22-337): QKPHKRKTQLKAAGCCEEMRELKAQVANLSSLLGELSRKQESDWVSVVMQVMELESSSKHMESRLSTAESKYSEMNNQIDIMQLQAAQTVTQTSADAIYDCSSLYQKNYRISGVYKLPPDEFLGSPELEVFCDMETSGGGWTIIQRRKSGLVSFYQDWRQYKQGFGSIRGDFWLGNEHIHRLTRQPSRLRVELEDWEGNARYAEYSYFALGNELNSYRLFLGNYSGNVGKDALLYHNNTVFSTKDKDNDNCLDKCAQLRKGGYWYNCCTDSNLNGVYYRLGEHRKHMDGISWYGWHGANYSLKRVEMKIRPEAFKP
# B1: ATX-P-428 (antibody)
# heavy: QVQLVQSGAEVKKPGASVKVSCKASGYTFSSYGISWVRQAPGQGLEWMGWISAYNGNTNYAQNLRGRVAMTTDTSTTTAYMELRSLRSDDTAVYYCARVSLVWFGELPRGFDYWGQGTLVTVSSASTKGPSVFPLAPSSKSTSGGTAALGCLVKDYFPEPVTVSWNSGALTSGVHTFPAVLQSSGLYSLSSVVTVPSSSLGTQTYICNVNHKPSNTKVDKRV[in this place human IgG1 Fc with changes]
# light: [in this place about 200 residues]
# B2: ATX-P-429: human anti-ANGPTL7 monoclonal antibody; HCDR1-3 SEQ ID NOs 3, 9, 14; LCDR1-3 SEQ ID NOs 123, 129, 135 (antibody)
# heavy: QVQLVQSGAEVKKPGASVKVSCKASGYTFSSYGISWVRQAPGQGLEWMGWISAYNGNTNYAQNLRGRVAMTTDTSTTTAYMELRSLRSDDTAVYYCARVSLVWFGELPRGFDYWGQGTLVTVSSASTKGPSVFPLAPSSKSTSGGTAALGCLVKDYFPEPVTVSWNSGALTSGVHTFPAVLQSSGLYSLSSVVTVPSSSLGTQTYICNVNHKPSNTKVDKRV[in this place human IgG1 Fc with changes]
# light: [in this place about 100 residues]YCMQTLQTPYTFGQGTKLEIKRTVAAPSVFIFPPSDEQLKSGTASVVCLLNNFYPREAKVQWKVDNALQSGNSQESVTEQDSKDSTYSLSSTLTLSKADYEKHKVYACEVTHQGLSSPVTKSFNRGEC
# B3: ATX-P-432 (antibody)
# heavy: QVQLVQSGAEVKKPGASVKVSCKASGYTFTDYYIHWVRQAPGPGLEWLGWINPNTGATKYAQKFQGRVTMTRDTSISTAYMELSRLRSDDTAVYYCAREDNGNYGDVFDIWGQGTMVTVSSASTKGPSVFPLAPSSKSTSGGTAALGCLVKDYFPEPVTVSWNSGALTSGVHTFPAVLQSSGLYSLSSVVTVPSSSLGTQTYICNVNHKPSNTKVDKRV[in this place human IgG1 Fc with changes]
# light: [in this place about 200 residues]
# B4: ATX-P-439 (antibody)
# heavy: [in this place about 100 residues]VERDMVRGHYYYYMDVWGKGTTVTVSSASTKGPSVFPLAPSSKSTSGGTAALGCLVKDYFPEPVTVSWNSGALTSGVHTFPAVLQSSGLYSLSSVVTVPSSSLGTQTYICNVNHKPSNTKVDKRV[in this place human IgG1 Fc with changes]
# light: DIQMTQSPSSVSASVGDRVTITCRASQGISSWLAWYQQKPGKAPKLLIYAASSLQSGVPSRFSGSGSGTDFTLTISSLQPEDFATYYCQQANSFPWTFGQGTKVDIKRTVAAPSVFIFPPSDEQLKSGTASVVCLLNNFYPREAKVQWKVDNALQSGNSQESVTEQDSKDSTYSLSSTLTLSKADYEKHKVYACEVTHQGLSSPVTKSFNRGEC
# B5: ATX-P-440: human anti-ANGPTL7 monoclonal antibody; HCDR1-3 SEQ ID NOs 33, 49, 64; LCDR1-3 SEQ ID NOs 93, 105, 117 (antibody)
# heavy: EVQLVESGGGVVRPGGSLRLSCAASGFTFDDYGMSWVRQAPGKGLEWVSTINWNGGNTGYADSVKGRFTISRDNAKNSLYLQMNSLRAEDTALYYCARDEGAAGLGYYFDYWGQGTLVTVSSASTKGPSVFPLAPSSKSTSGGTAALGCLVKDYFPEPVTVSWNSGALTSGVHTFPAVLQSSGLYSLSSVVTVPSSSLGTQTYICNVNHKPSNTKVDKRV[in this place human IgG1 Fc with changes]
# light: DIQMTQSPSTLSASVGDRVTITCRASQSISSWLAWYQQKPGKAPKLLIYATSSLQSGVPSRFSGSGSGTDFTLTISSLQPEDFATYYCQQSYSTPITFGQGTRLEIKRTVAAPSVFIFPPSDEQLKSGTASVVCLLNNFYPREAKVQWKVDNALQSGNSQESVTEQDSKDSTYSLSSTLTLSKADYEKHKVYACEVTHQGLSSPVTKSFNRGEC
# B6: ATX-P-442 (antibody)
# heavy: QITLKESGPTLVKPTQTLTLTCTFSGFSLSTSGVGVGWIRQPPGKALEWLALIYWNDDKRYSPSLKSRLTITKDTSKNLVVLTMTNMDPVDTATYYCARDYGDYWFFDLWGRGTPVTVSSASTKGPSVFPLAPSSKSTSGGTAALGCLVKDYFPEPVTVSWNSGALTSGVHTFPAVLQSSGLYSLSSVVTVPSSSLGTQTYICNVNHKPSNTKVDKRV[in this place human IgG1 Fc with changes]
# light: B5 light with T10S, S28G, W32Y, T51A, Y92F, I96L, Q100G, R103K
# B7: ATX-P-443 (antibody)
# heavy: QVQLVQSGAEVKKPGASVKVSCKASGYTFTSYGISWVRQAPGQGLEWMGWIIAYNGNTNYAQKLQGRITMTTNTSTNTAYMELRSLRSDDTAVYYCGRDTGFSFDYWGQGTLVTVSSASTKGPSVFPLAPSSKSTSGGTAALGCLVKDYFPEPVTVSWNSGALTSGVHTFPAVLQSSGLYSLSSVVTVPSSSLGTQTYICNVNHKPSNTKVDKRV[in this place human IgG1 Fc with changes]
# light: [in this place about 200 residues]
# B8: ATX-P-424 (antibody)
# heavy: EVQLVESGGGLVKPGGSLRLSCAASGFTFSSYSMNWVRQAPGKGLEWVSSITSSSYIFYADSLKGRFTISRDNAKNSLFLQMNSLRAEDTAVYYCARDSNWGEAFDIWGQGTMVTVSSASTKGPSVFPLAPSSKSTSGGTAALGCLVKDYFPEPVTVSWNSGALTSGVHTFPAVLQSSGLYSLSSVVTVPSSSLGTQTYICNVNHKPSNTKVDKRV[in this place human IgG1 Fc with changes]
# light: DIQMTQSPSSLSASVGDRVTITCRASQGIRNDLGWYQQKPGKAPKRLIYAASSLPSGVPSRFSGSGSGTEFTLTISSLQPEDFAIYYCLQHNSYPWTFGQGTKVEIKRTVAAPSVFIFPPSDEQLKSGTASVVCLLNNFYPREAKVQWKVDNALQSGNSQESVTEQDSKDSTYSLSSTLTLSKADYEKHKVYACEVTHQGLSSPVTKSFNRGEC
# B9: ATX-P-427 (antibody)
# heavy: EVQLVESGGGVVRPGGSLRLSCAASGFSFDDYGMSWVRQVPGKGLEWVSGINWNGGSTGYADSVKGRFTISRDNAKNSLYLQMSSLRAEDTALYYCASYSGSFRDAFDIWGQGTMVTVSSASTKGPSVFPLAPSSKSTSGGTAALGCLVKDYFPEPVTVSWNSGALTSGVHTFPAVLQSSGLYSLSSVVTVPSSSLGTQTYICNVNHKPSNTKVDKRV[in this place human IgG1 Fc with changes]
# light: B8 light with D1A, R46L, P55Q, E70D, I85T, H91D, N92Y, S93N, W96Y, V104L
# What was measured:
# [1] = biological target: T1, mouse ANGPTL7 protein (muANGPTL7-his, R&D Systems); experiment: Octet HTX binding kinetics to muANGPTL7-his; conditions: monovalent KD, 1:1 model; muANGPTL7-his @ 200 nM
# Protocol: (§1) Experiments were also conducted to determine the reactivity and dissociation constants (KD) of anti-ANGPTL7 antibodies with the mouse ANGPTL7 protein. Binding experiments were performed on Octet HTX (ForteBio) in 1×PBS, pH 7.4, 0.1 mg/mi BSA, 0.05% Sodium Azide, and 0.02% Tween 20. Antibodies at a concentration of 50 nM were loaded on pre-hydrated AHC biosensors for 5 mA. The loaded sensors were dipped into monovalent muANGPTL7-his (R&D Systems) at a concentration of 200 nM for 5 min of association, followed by 10 min of dissociation. Results were analyzed with ForteBio Data Analysis 11.1 and fit to a 1:1 binding model to determine the monovalent KD. Responses (nm) at the end of association were also determined (Table 5).
# [2] = system: rabbit ANGPTL7 protein (P66, rabbit ANGPTL7-his); experiment: Octet HTX binding kinetics to P66 (rabbit ANGPTL7-his); conditions: P66 @ 200 nM; for KD (M): monovalent KD, 1:1 model
# Protocol: as §1, with “([…])” for “(KD)”, “rabbit” for “mouse”, “Rx PBS,” for “1×PBS,”, “min.” for “mA.”, “P66 (rabbit ANGPTL7-his)” for “muANGPTL7-his (R&D Systems)”, “6).” for “5).”
# [3] = Differential scanning fluorimetry (Protein Thermal Shift assay), thermal stability; format: physicochemical; conditions: DSF, melt 25° C. to 95° C., triplicate; in °C (unit assumed)
# Protocol: Human ANGPTL7 monoclonal antibody differential scanning fluorimetry (DSF). […] Among the many techniques used to study the stability of mAbs, differential scanning fluorimetry (DSF) offers both excellent throughput and minimal material consumption. DSF measures the temperature of the protein unfolding transition (Tm) based on the change in fluorescence intensity of an environmentally sensitive dye.
# Experiments were conducted to assess the thermal stability of the human ANGPTL7 monoclonal antibodies (“ATX” antibodies) of the present disclosure by determining the melting temperature. Thermal stability was assessed via differential scanning fluorimetry (DSF) utilizing the Protein Thermal Shift (PTS) assay from Applied Biosystems. The assay was performed according to the manufacturer's instruction. Briefly, the antibody to be evaluated was prepared in triplicate by mixing with Protein Thermal Shift dye and buffer; a real-time melt experiment from 25° C. to 95° C. was run on QuantStudio 3. Data was analyzed by using Protein Thermal Shift Software and the melting temperature (Tm) was calculated from the melt curve (Table 1).
Molecule,KD (M) [1],kdis(1/8) [2],KD (M) [2],Tm 2 - Mean [3],Tm D - Mean [3],Response ([2]; at end of association) [nm]
B1,N.B.,N.B.,N.B.,79.24,62.62,–
B2,N.B.,N.B.,N.B.,80.49,62.64,–
B3,N.B.,N.B.,N.B.,–,62.82,0.09
B4,P.F.,2.98E−04 1/8,–,83.42,62.77,–
B5,–,3.18E−04 1/8,–,79.68,62.58,–
B6,P.F.,4.87E−04 1/8,–,85.10,62.44,–
B7,N.B.,N.B.,N.B.,–,62.45,–
B8,N.B.,2.44E−04 1/8,–,73.14,62.69,–
B9,–,1.33E−04 1/8,–,67.87,62.78,–

# Source: patent US20250296996A1, “ANGIOPOIETIN-RELATED PROTEIN 7-SPECIFIC ANTIBODIES AND USES THEREOF” (Broadwing Bio, Inc., priority 2022, published 2025)
